Laboratory results from the supplement of paper PMC4604168 (melanoma cell lines).
Some of the results follow. Many values rest on one well or one pass, so single values are uncertain.

Assays:
Assay in all cases: cell count relative to DMSO control; melanoma cells; higher = more viable cells
Conditions in all cases: library dose: low library concentration; 72 h
WM115 = system: WM115
WM1716 = system: WM1716
WM1745 = system: WM1745
WM3526 = system: WM3526
WM3619 = system: WM3619
WM451Lu = system: WM451Lu
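Note: cell number obtained by counting DAPI-stained nuclei in high-throughput microscope images with image analysis software, screen run in 1,536-well plates.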

SMILES	cell count (WM115) [%]	cell count (WM1716) [%]	cell count (WM1745) [%]	cell count (WM3526) [%]	cell count (WM3619) [%]	cell count (WM451Lu) [%]
COc1ccc(C2=N[C@@H](c3ccc(Cl)cc3)[C@@H](c3ccc(Cl)cc3)N2C(=O)N2CCNC(=O)C2)c(OC(C)C)c1 [Nutlin-3] + Cn1c(Nc2ccc(C(F)(F)F)cc2)nc2cc(Oc3ccnc(-c4ncc(C(F)(F)F)[nH]4)c3)ccc21 [CHIR265] (first compound 0.1 µM, partner dose 0.08 µM)	54.5	83.7	71.6	71.1	68.3	91.1
Cc1cn(-c2cc(NC(=O)c3ccc(C)c(Nc4nccc(-c5cccnc5)n4)c3)cc(C(F)(F)F)c2)cn1 [nilotinib] + Nc1cccc2c1CN(C1CCC(=O)NC1=O)C2=O [lenalidomide] (first compound 0.2 µM, partner dose 1 µM)	97.6	91.2	81.6	100	110	97.2
CC(C)C[C@H](NC(=O)[C@H](Cc1ccccc1)NC(=O)c1cnccn1)B(O)O [Bortezomib] + Cc1cc([N+](=O)[O-])ccc1NS(=O)(=O)c1cc(Cl)ccc1Cl [FH535] (first compound 0.001 µM, partner dose 1 µM)	88.1	28.6	62.2	78.4	16	113
Cc1cn(-c2cc(NC(=O)c3ccc(C)c(Nc4nccc(-c5cccnc5)n4)c3)cc(C(F)(F)F)c2)cn1 [nilotinib] + CNC(=O)c1cc(Oc2ccc(NC(=O)Nc3ccc(Cl)c(C(F)(F)F)c3)cc2)ccn1 [sorafenib] (first compound 0.2 µM, partner dose 0.4 µM)	106	84.6	94.3	103	109	101
Cc1cc(Nc2cc(N3CCN(C)CC3)nc(/C=C/c3ccccc3)n2)n[nH]1 + O=C(O)C(=O)Nc1sc2c(c1C(=O)O)CCNC2 [TCS401] (first compound 0.04 µM, partner dose 1.66667 µM)	98	118	87.2	82.3	85	83.8
Cc1cc(Nc2cc(N3CCN(C)CC3)nc(/C=C/c3ccccc3)n2)n[nH]1 + C#Cc1cccc(Nc2ncnc3cc(OCCOC)c(OCCOC)cc23)c1 [erlotinib] (first compound 0.04 µM, partner dose 0.8 µM)	86.4	83.4	79.9	89.3	84.9	100
Cc1cc(Nc2cc(N3CCN(C)CC3)nc(/C=C/c3ccccc3)n2)n[nH]1 + Clc1ccc(Nc2nnc(Cc3ccncc3)c3ccccc23)cc1 [vatalanib] (first compound 0.04 µM, partner dose 2 µM)	88.1	94.4	85.3	103	94.2	69.5
COc1ccc(C2=N[C@@H](c3ccc(Cl)cc3)[C@@H](c3ccc(Cl)cc3)N2C(=O)N2CCNC(=O)C2)c(OC(C)C)c1 [Nutlin-3] + Cc1cc(N2CCOCC2)cc2[nH]c(-c3c(NC[C@@H](O)c4cccc(Cl)c4)cc[nH]c3=O)nc12 [BMS536924] (first compound 0.1 µM, partner dose 0.2 µM)	93.4	93.5	73.8	90.2	90.2	94.8
COc1ccc(C2=N[C@@H](c3ccc(Cl)cc3)[C@@H](c3ccc(Cl)cc3)N2C(=O)N2CCNC(=O)C2)c(OC(C)C)c1 [Nutlin-3] + OCc1c[nH]c2ccccc12 [Indole-3-carbinol] (first compound 0.1 µM, partner dose 0.8 µM)	87.6	85.8	104	120	92.6	89.5
COc1ccc(C2=N[C@@H](c3ccc(Cl)cc3)[C@@H](c3ccc(Cl)cc3)N2C(=O)N2CCNC(=O)C2)c(OC(C)C)c1 [Nutlin-3] + Cc1cc(Nc2cc(N3CCN(C)CC3)nc(/C=C/c3ccccc3)n2)n[nH]1 [ENMD2076] (first compound 0.1 µM, partner dose 0.04 µM)	90.9	95.4	98.6	111	94.7	107
CC(C)C[C@H](NC(=O)[C@H](Cc1ccccc1)NC(=O)c1cnccn1)B(O)O [Bortezomib] + O=C(O)[C@@H]1[O][Sb](=[O])([O][Sb]2(=[O])[O][C@H]([C@H](O)CO)[C@H](O)[C@H](C(=O)O)[O]2)[O][C@H]([C@H](O)CO)[C@@H]1O [stibogluconate] (first compound 0.001 µM, partner dose 2 µM)	115	49.7	86.6	87.9	39.1	105
COc1ccc(C2=N[C@@H](c3ccc(Cl)cc3)[C@@H](c3ccc(Cl)cc3)N2C(=O)N2CCNC(=O)C2)c(OC(C)C)c1 [Nutlin-3] + Nc1nc(F)nc2c1ncn2[C@@H]1O[C@H](CO)[C@@H](O)[C@@H]1O [fludarabine] (first compound 0.1 µM, partner dose 0.2 µM)	88.8	89.8	97.9	30.6	86.5	63.5
Cc1cc(Nc2cc(N3CCN(C)CC3)nc(/C=C/c3ccccc3)n2)n[nH]1 + C=CCn1c(=O)c2cnc(Nc3ccc(N4CCN(C)CC4)cc3)nc2n1-c1cccc(C(C)(C)O)n1 [MK1775] (first compound 0.04 µM, partner dose 0.02 µM)	71	83.9	72.6	86	75.8	91.6
Cn1c(=O)n(-c2ccc(C(C)(C)C#N)cc2)c2c3cc(-c4cnc5ccccc5c4)ccc3ncc21 + Oc1cc(-c2nc(-c3ccccc3)[nH]c2-c2ccncc2)ccc1Cl [L779450] (first compound 0.004 µM, partner dose 0.2 µM)	62.4	80.9	83	82.2	80.1	123
Cc1cc(Nc2cc(N3CCN(C)CC3)nc(/C=C/c3ccccc3)n2)n[nH]1 + Cc1ccc(NC(=O)c2cccc(N(C)C)c2)cc1NC(=O)c1ccc(O)cc1 [ZM336372] (first compound 0.04 µM, partner dose 2 µM)	86.2	113	77.6	74.8	97.3	68.9
Cc1cc(Nc2cc(N3CCN(C)CC3)nc(/C=C/c3ccccc3)n2)n[nH]1 + Cn1c(=O)n(-c2ccc(C(C)(C)C#N)cc2)c2c3cc(-c4cnc5ccccc5c4)ccc3ncc21 [NVP-BEZ235] (first compound 0.04 µM, partner dose 0.004 µM)	91.2	94.3	83.8	87.3	91.9	111
Cn1c(=O)n(-c2ccc(C(C)(C)C#N)cc2)c2c3cc(-c4cnc5ccccc5c4)ccc3ncc21 + Nc1cccc2c1CN(C1CCC(=O)NC1=O)C2=O [lenalidomide] (first compound 0.004 µM, partner dose 1 µM)	90.4	81.7	94	79.7	88.1	106
Cc1cc(Nc2cc(N3CCN(C)CC3)nc(/C=C/c3ccccc3)n2)n[nH]1 + O=C(O)[C@@H]1[O][Sb](=[O])([O][Sb]2(=[O])[O][C@H]([C@H](O)CO)[C@H](O)[C@H](C(=O)O)[O]2)[O][C@H]([C@H](O)CO)[C@@H]1O [stibogluconate] (first compound 0.04 µM, partner dose 2 µM)	98.6	104	84.6	88.3	106	93.4
Cc1cn(-c2cc(NC(=O)c3ccc(C)c(Nc4nccc(-c5cccnc5)n4)c3)cc(C(F)(F)F)c2)cn1 [nilotinib] + Cn1sc(=O)n(Cc2ccccc2)c1=O [TDZD-8] (first compound 0.2 µM, partner dose 0.4 µM)	105	122	92.8	115	133	109
CC(C)C[C@H](NC(=O)[C@H](Cc1ccccc1)NC(=O)c1cnccn1)B(O)O [Bortezomib] + CC(=O)c1c(C)c2cnc(Nc3ccc(N4CCNCC4)cn3)nc2n(C2CCCC2)c1=O [palbociclib] (first compound 0.001 µM, partner dose 0.04 µM)	83.5	19.4	59.1	48.2	16.8	70.1
Cn1c(=O)n(-c2ccc(C(C)(C)C#N)cc2)c2c3cc(-c4cnc5ccccc5c4)ccc3ncc21 + COc1cc2ncnc(Nc3ccc(Oc4ccccc4)cc3)c2cc1OC [SrcI1] (first compound 0.004 µM, partner dose 2 µM)	88.3	70.7	94	78.8	74.8	96.8
COc1ccc(C2=N[C@@H](c3ccc(Cl)cc3)[C@@H](c3ccc(Cl)cc3)N2C(=O)N2CCNC(=O)C2)c(OC(C)C)c1 [Nutlin-3] + Cc1cc([N+](=O)[O-])ccc1NS(=O)(=O)c1cc(Cl)ccc1Cl [FH535] (first compound 0.1 µM, partner dose 1 µM)	87.6	98.8	93.9	106	105	99.5
COc1ccc(C2=N[C@@H](c3ccc(Cl)cc3)[C@@H](c3ccc(Cl)cc3)N2C(=O)N2CCNC(=O)C2)c(OC(C)C)c1 [Nutlin-3] + CS(=O)(=O)CCNCc1ccc(-c2ccc3ncnc(Nc4ccc(OCc5cccc(F)c5)c(Cl)c4)c3c2)o1 [lapatinib] (first compound 0.1 µM, partner dose 0.8 µM)	90.4	137	121	102	108	122
Cc1cn(-c2cc(NC(=O)c3ccc(C)c(Nc4nccc(-c5cccnc5)n4)c3)cc(C(F)(F)F)c2)cn1 [nilotinib] + Cc1cc(N2CCOCC2)cc2[nH]c(-c3c(NC[C@@H](O)c4cccc(Cl)c4)cc[nH]c3=O)nc12 [BMS536924] (first compound 0.2 µM, partner dose 0.2 µM)	88.5	110	63.6	80.7	114	127
